The chains are these.
T1: RBFOX1 RRM RbFoxmut (Fox-RRM*) (Homo sapiens, UniProt Q9NWB1 109-208, R118D;E147R;N151S;E152T)
T1 sequence: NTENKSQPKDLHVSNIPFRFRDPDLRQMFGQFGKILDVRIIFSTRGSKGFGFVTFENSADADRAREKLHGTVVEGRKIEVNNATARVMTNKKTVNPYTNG

B1: AGGCCAU (DNA:RNA)
RNA: GGGAGACCGGAAUUCAGAUUGUCCAGGCCAUUUAAAUCCCGUCGUAGCCACCA
DNA 1: CAATCTGAATTCCGGTCTCCC
DNA 2: TGGTGGCTACGACGGGATT
B2: CUGAAGG (DNA:RNA)
RNA: B1 RNA with A25C, G26U, C28A, C29A, A30G, U31G
DNA 1: CAATCTGAATTCCGGTCTCCC
DNA 2: TGGTGGCTACGACGGGATT
B3: GGGGACC (DNA:RNA)
RNA: B1 RNA with A25G, C28G, C29A, A30C, U31C
DNA 1: CAATCTGAATTCCGGTCTCCC
DNA 2: TGGTGGCTACGACGGGATT
B4: UCGUGGG (DNA:RNA)
RNA: B1 RNA with A25U, G26C, C28U, C29G, A30G, U31G
DNA 1: CAATCTGAATTCCGGTCTCCC
DNA 2: TGGTGGCTACGACGGGATT
B5: CACGAAU (DNA:RNA)
RNA: B1 RNA with A25C, G26A, G27C, C28G, C29A
DNA 1: CAATCTGAATTCCGGTCTCCC
DNA 2: TGGTGGCTACGACGGGATT
B6: CGUCUUU (DNA:RNA)
RNA: B1 RNA with A25C, G27U, C29U, A30U
DNA 1: CAATCTGAATTCCGGTCTCCC
DNA 2: TGGTGGCTACGACGGGATT
B7: AAAAGUC (DNA:RNA)
RNA: B1 RNA with G26A, G27A, C28A, C29G, A30U, U31C
DNA 1: CAATCTGAATTCCGGTCTCCC
DNA 2: TGGTGGCTACGACGGGATT
B8: GGUAACG (DNA:RNA)
RNA: B1 RNA with A25G, G27U, C28A, C29A, A30C, U31G
DNA 1: CAATCTGAATTCCGGTCTCCC
DNA 2: TGGTGGCTACGACGGGATT
B9: CCGCUAC (DNA:RNA)
RNA: B1 RNA with A25C, G26C, C29U, U31C
DNA 1: CAATCTGAATTCCGGTCTCCC
DNA 2: TGGTGGCTACGACGGGATT
B10: CGCUACG (DNA:RNA)
RNA: B1 RNA with A25C, G27C, C28U, C29A, A30C, U31G
DNA 1: CAATCTGAATTCCGGTCTCCC
DNA 2: TGGTGGCTACGACGGGATT
B11: UGACACC (DNA:RNA)
RNA: B1 RNA with A25U, G27A, C29A, A30C, U31C
DNA 1: CAATCTGAATTCCGGTCTCCC
DNA 2: TGGTGGCTACGACGGGATT
B12: CACGUAC (DNA:RNA)
RNA: B1 RNA with A25C, G26A, G27C, C28G, C29U, U31C
DNA 1: CAATCTGAATTCCGGTCTCCC
DNA 2: TGGTGGCTACGACGGGATT
B13: UUACAGC (DNA:RNA)
RNA: B1 RNA with A25U, G26U, G27A, C29A, A30G, U31C
DNA 1: CAATCTGAATTCCGGTCTCCC
DNA 2: TGGTGGCTACGACGGGATT
B14: UUCGGGU (DNA:RNA)
RNA: B1 RNA with A25U, G26U, G27C, C28G, C29G, A30G
DNA 1: CAATCTGAATTCCGGTCTCCC
DNA 2: TGGTGGCTACGACGGGATT
B15: GUCCGCU (DNA:RNA)
RNA: B1 RNA with A25G, G26U, G27C, C29G, A30C
DNA 1: CAATCTGAATTCCGGTCTCCC
DNA 2: TGGTGGCTACGACGGGATT
B16: AGGGUGU (DNA:RNA)
RNA: B1 RNA with C28G, C29U, A30G
DNA 1: CAATCTGAATTCCGGTCTCCC
DNA 2: TGGTGGCTACGACGGGATT
B17: CGCUUGG (DNA:RNA)
RNA: B1 RNA with A25C, G27C, C28U, C29U, A30G, U31G
DNA 1: CAATCTGAATTCCGGTCTCCC
DNA 2: TGGTGGCTACGACGGGATT
B18: UCCAUAC (DNA:RNA)
RNA: B1 RNA with A25U, G26C, G27C, C28A, C29U, U31C
DNA 1: CAATCTGAATTCCGGTCTCCC
DNA 2: TGGTGGCTACGACGGGATT
B19: UACGACG (DNA:RNA)
RNA: GGGAGACCGGAAUUCAGAUUGUCCUACGACGUUAAAUCCCGUCGUAGCCACCA
DNA 1: CAATCTGAATTCCGGTCTCCC
DNA 2: TGGTGGCTACGACGGGATT
B20: AUCACGC (DNA:RNA)
RNA: B1 RNA with G26U, G27C, C28A, A30G, U31C
DNA 1: CAATCTGAATTCCGGTCTCCC
DNA 2: TGGTGGCTACGACGGGATT
B21: ACCAGUU (DNA:RNA)
RNA: B1 RNA with G26C, G27C, C28A, C29G, A30U
DNA 1: CAATCTGAATTCCGGTCTCCC
DNA 2: TGGTGGCTACGACGGGATT
B22: AGGGAUG (DNA:RNA)
RNA: B1 RNA with C28G, C29A, A30U, U31G
DNA 1: CAATCTGAATTCCGGTCTCCC
DNA 2: TGGTGGCTACGACGGGATT
B23: CGGUCCC (DNA:RNA)
RNA: B1 RNA with A25C, C28U, A30C, U31C
DNA 1: CAATCTGAATTCCGGTCTCCC
DNA 2: TGGTGGCTACGACGGGATT
B24: AGCGGAC (DNA:RNA)
RNA: B1 RNA with G27C, C28G, C29G, U31C
DNA 1: CAATCTGAATTCCGGTCTCCC
DNA 2: TGGTGGCTACGACGGGATT
B25: CAGCGUC (DNA:RNA)
RNA: B1 RNA with A25C, G26A, C29G, A30U, U31C
DNA 1: CAATCTGAATTCCGGTCTCCC
DNA 2: TGGTGGCTACGACGGGATT
B26: CGAGUUG (DNA:RNA)
RNA: B19 RNA with U25C, A26G, C27A, A29U, C30U
DNA 1: CAATCTGAATTCCGGTCTCCC
DNA 2: TGGTGGCTACGACGGGATT
B27: GCGGAAA (DNA:RNA)
RNA: B1 RNA with A25G, G26C, C28G, C29A, U31A
DNA 1: CAATCTGAATTCCGGTCTCCC
DNA 2: TGGTGGCTACGACGGGATT
B28: GAACCCA (DNA:RNA)
RNA: B1 RNA with A25G, G26A, G27A, A30C, U31A
DNA 1: CAATCTGAATTCCGGTCTCCC
DNA 2: TGGTGGCTACGACGGGATT
B29: ACGCCAA (DNA:RNA)
RNA: B1 RNA with G26C, U31A
DNA 1: CAATCTGAATTCCGGTCTCCC
DNA 2: TGGTGGCTACGACGGGATT
B30: GUCGUCC (DNA:RNA)
RNA: B19 RNA with U25G, A26U, A29U, G31C
DNA 1: CAATCTGAATTCCGGTCTCCC
DNA 2: TGGTGGCTACGACGGGATT
B31: UGCGAGU (DNA:RNA)
RNA: B19 RNA with A26G, C30G, G31U
DNA 1: CAATCTGAATTCCGGTCTCCC
DNA 2: TGGTGGCTACGACGGGATT

The source of these data is paper PMC9911399, “Two distinct binding modes provide the RNA-binding protein RbFox with extraordinary sequence specificity”.

Positions count from the first letter of the chain named. This is one part of the list.

The test concerns the target T1, RBFOX1 RRM RbFoxmut (Fox-RRM*). In words: EMSA; HiTS-Eq, 1 nM pool, 10 min; buffer printed only for the single-RNA assays: 10 mM Tris pH 7.5, 150 mM NaCl, 3.4 mM EDTA, 0.001% NP-40, 30 C. The following applies: tags: His6 N-terminal (pET28a); label: 5' 32P. The essentials:
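These values rest on relative association constants, computed from read-count changes of each RNA species versus the control reaction and normalised to the cognate motif. Reads came from free RNA recovered by 8% native PAGE after purified RbFox RRM (wild type or mutant) at increasing concentrations was equilibrated for 10 min in 50 µL with 1 nM of a 5′-radiolabelled pool with 7 randomized nucleotides and DNA-annealed flanks.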
Background: In EMSA bound probe runs differently from free probe, usually more slowly.
For B1, the binding signal was 0.0666 KA relative to UGCAUGU.
Next, B2: 0.0966 KA relative to UGCAUGU; B3: 0.108 KA relative to UGCAUGU.
As for B4, the figure is 0.113 KA relative to UGCAUGU; as for B5, 0.116 KA relative to UGCAUGU; as for B6, 0.0593 KA relative to UGCAUGU.
Next, B7: 0.0411 KA relative to UGCAUGU.
For the molecule B8, the binding signal is 0.11 KA relative to UGCAUGU.
In the case of B9, the binding signal is 0.129 KA relative to UGCAUGU.
For B10, the binding signal is 0.0851 KA relative to UGCAUGU.
As for B11, the figure is 0.0695 KA relative to UGCAUGU; as for B12, 0.122 KA relative to UGCAUGU; as for B13, 0.0688 KA relative to UGCAUGU.
As for B14, the figure is 0.0661 KA relative to UGCAUGU.
As for B15, the figure is 0.11 KA relative to UGCAUGU; as for B16, 0.174 KA relative to UGCAUGU.
For B17, the binding signal was 0.145 KA relative to UGCAUGU.
B18: the binding signal is 0.101 KA relative to UGCAUGU.
Next, B19: 0.106 KA relative to UGCAUGU.
Next, B20: 0.102 KA relative to UGCAUGU; B21: 0.0728 KA relative to UGCAUGU.
As to B22, the binding signal was 0.476 KA relative to UGCAUGU.
Next, B23: 0.059 KA relative to UGCAUGU.
For B24, the binding signal is 0.0724 KA relative to UGCAUGU.
Next, B25: 0.126 KA relative to UGCAUGU; B26: 0.114 KA relative to UGCAUGU; B27: 0.0932 KA relative to UGCAUGU.
As for B28, the figure is 0.0628 KA relative to UGCAUGU; as for B29, 0.0795 KA relative to UGCAUGU; as for B30, 0.102 KA relative to UGCAUGU.
Next, B31: 0.153 KA relative to UGCAUGU.
